Assay results from patent publication US20220389066A1, “POLYPEPTIDES” (Affibody AB, priority 2019, published 2022).

T1: HMGB1(disulfide) (Rattus norvegicus, UniProt P63159)
T1 construct: purchased HMGBiotech Srl, Milano, Italy
T1 sequence (P63159 1-215): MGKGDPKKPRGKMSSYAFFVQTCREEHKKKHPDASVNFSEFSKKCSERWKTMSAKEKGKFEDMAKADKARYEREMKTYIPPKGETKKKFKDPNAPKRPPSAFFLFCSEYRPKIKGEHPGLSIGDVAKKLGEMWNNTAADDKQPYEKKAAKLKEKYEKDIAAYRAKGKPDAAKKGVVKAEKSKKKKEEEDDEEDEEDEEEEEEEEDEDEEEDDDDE

T2: boxA(disulfide) (Homo sapiens, UniProt P09429)
T2 construct: purchased HMGBiotech Srl, Milano, Italy
T2 sequence (P09429 1-89): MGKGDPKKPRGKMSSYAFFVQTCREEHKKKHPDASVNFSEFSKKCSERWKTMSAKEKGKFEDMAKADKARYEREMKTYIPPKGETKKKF

T3: HMGB1(red) (Rattus norvegicus, UniProt P63159)
T3 construct: purchased HMGBiotech Srl, Milano, Italy
T3 sequence (P63159 1-215): T1 sequence (P63159 1-215)

T4: HMGB1(red) (Rattus norvegicus, UniProt P63159)
T4 construct: purchased HMGBiotech Srl, Milano, Italy
T4 sequence (P63159 2-215): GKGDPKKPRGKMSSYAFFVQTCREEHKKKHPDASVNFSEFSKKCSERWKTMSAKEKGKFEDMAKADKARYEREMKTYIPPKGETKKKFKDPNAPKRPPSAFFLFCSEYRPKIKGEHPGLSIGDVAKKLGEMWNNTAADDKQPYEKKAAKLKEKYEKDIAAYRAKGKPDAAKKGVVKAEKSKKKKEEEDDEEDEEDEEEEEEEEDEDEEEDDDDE

B1: ZA3812: A-box binding Z-ABD polypeptide, ZH 27-ASGS-PP013 (protein)
chain: AEAKYAKEDWDAFWEIIWLPNLTDAQQRAFIYKLEDDPSQSSELLSEAKKLNDSQAPKASGSLAEAKEAANAELDSYGVSDFYKRLIDKAKTVEGVEALKDAILAALP
modifications: Engineered HMGB1 binding polypeptide
B2: ZZA4053: homodimer of ZH27, format Z(boxA)-L1-Z(boxA)-ABD (protein)
chain: AEAKYAKEDWDAFWEIIWLPNLTDAQQRAFIYKLEDDPSQSSELLSEAKKLNDSQAPKGAPGGGGSGGGGSGGGGSTSAEAKYAKEDWDAFWEIIWLPNLTDAQQRAFIYKLEDDPSQSSELLSEAKKLNDSQAPKASGSLAEAKEAANAELDSYGVSDFYKRLIDKAKTVEGVEALKDAILAALP
modifications: Engineered HMGB1 binding polypeptide
notes: homodimer of ZH27, format Z(boxA)-L1-Z(boxA)-ABD
B3: ZZA4010: heterodimer ZH01/ZH31, format Z(boxA)-L1-Z(boxB)-ABD (protein)
chain: VDAKYAKEDWDAFWEIIWLPNLTDAQQRAFIYKLEDDPSQSSELLSEAKKLNDSQAPKGAPGGGGSGGGGSGGGGSTSVDAKYAKEAWLAEQEIWQLPNLTEAQFQAFILKLIDDPSQSSELLSEAKKLNDSQAPKASGSLAEAKEAANAELDSYGVSDFYKRLIDKAKTVEGVEALKDAILAALP
modifications: Engineered HMGB1 binding polypeptide
notes: heterodimer ZH01/ZH31, format Z(boxA)-L1-Z(boxB)-ABD

Key:
HMGB1(disulfide) [1] = molecular target: T1, HMGB1(disulfide); assay: Biacore kinetic analysis, Z-ABD captured on HSA, HMGB1(disulfide); format: binding; conditions: analyte HMGB1(disulfide); non-reducing; heterogeneous ligand parallel reactions model
Description: (§1) Biacore kinetic and specificity analysis: Kinetic constants (ka and kd) and affinities (KD) for HMGB1(red), HMGB1(disulfide), boxA(disulfide) and GST-boxA(red) were determined for the A-box binding Z-ABD polypeptides ZA3812 (SEQ ID NO:35) and ZA3914 (SEQ ID NO:36) (see Example 2), as well as for the HMGB1(red) interaction with the B-box binding polypeptide ZA3975, using a Biacore 2000 instrument (GE Healthcare).
(§2) The experiment was performed as a capture assay, in which human serum albumin (HSA, Novozymes, cat. no. 230-005) was immobilized on the carboxylated dextran layer of one CM5 chip surface (GE Healthcare, cat. no. BR100012) to immobilization levels of approximately 3000 RU. The immobilization was performed using amine coupling chemistry according to the manufacturer's protocol and using HBS-EP (GE Healthcare, cat. no. BR100188) as running buffer. In a first set of experiments, Z-ABD polypeptides were analyzed under non-reducing conditions. One flow cell surface was activated and deactivated for use as blank during ligand and analyte injections. In the kinetic experiment, HBS-EP was used as running buffer and the flow rate was 30 μl/min. The ligand, i.e. the Z-ABD polypeptide, was diluted in HBS-EP buffer to a concentration of 30 nM and injected during 2 min.
(§3) The analyte, i.e. HMGB1(disulfide) or boxA(disulfide), was diluted in HBS-EP buffer within a concentration range of 2.5 to 640 nM and injected during 6 min, followed by dissociation in running buffer for 12 min. After dissociation, the surfaces were regenerated with one injection of 10 mM HCl.
(§4) Kinetic constants were calculated from sensorgrams using the BiaEvaluation software 4.1 (GE Healthcare). The Langmuir 1:1 model was used for fitting of all data except for HMGB1(disulfide), where a model for heterogeneous ligand parallel reactions better represented the experimental data and bulk was set to zero. Double referencing was applied to all data prior to kinetic fit, i.e. responses obtained from a blank surface and from a blank cycle where buffer was injected instead of analyte were subtracted.

boxA(disulfide) = molecular target: T2, boxA(disulfide); assay: Biacore kinetic analysis, Z-ABD captured on HSA, boxA(disulfide); format: binding; conditions: analyte boxA(disulfide); non-reducing; 1:1 model
Description: as §1, §2, §3, §4

HMGB1(red) [2] = molecular target: T3, HMGB1(red); assay: Biacore kinetic analysis, Z-ABD captured on HSA, HMGB1(red); format: binding; conditions: analyte HMGB1(red); reducing conditions (DTT); 1:1 model
Description: as §1, §2
(§5) In a second set of experiments, ZA3812 and ZA3914 were analyzed under reducing conditions where 2 mM DTT was included in the sample and running buffer. Analyses were performed as described above, except that HMGB1(red) and GST-boxA(red) were used as targets.
In a third experiment, ZA3975 was analyzed for binding to HMGB1(red) under reduced conditions (1.5 mM DTT included in the sample and running buffer). The ligand ZA3975 was diluted in HBS-EP buffer to a concentration of 100 nM and injected during 4 min. The analyte, HMGB1(red), was diluted in HBS-EP buffer to a concentration within the range of 8.3 to 675 nM and injected during 4 min, followed by dissociation in running buffer for 20 min. After dissociation, the surfaces were regenerated with three injections of 10 mM HCl.
as §4

GST-boxA(red) = molecular target: T5, GST-boxA(red) (Homo sapiens, UniProt P09429); assay: Biacore kinetic analysis, Z-ABD captured on HSA, GST-boxA(red); format: binding; conditions: analyte GST-boxA(red); 2 mM DTT; 1:1 model
T5 construct: purchased HMGBiotech Srl, Milano, Italy
Description: as §1, §2, §5, §4

HMGB1(red) [3] = molecular target: T3, HMGB1(red); assay: Attana A200 biosensor binding analysis, HMGB1(red); conditions: relevant kd (the most represented in %); 2 mM DTT; captured on HSA; 1:1 or 1:2 model
Description: (§6) Binding analysis: The Attana A200® biosensor was used to characterize interactions between the dimeric polypeptides (SEQ ID NO:38-48) and HMGB1(red) under reducing conditions and/or HMGB1(disulfide) under non-reducing conditions. The monomeric ZA3812 (SEQ ID NO:35) was included for comparison. The experiment was performed as a capture assay, in which HSA was immobilized on Attana's sensor chip Low-NonSpecific-Binding (LNB). Immobilization was performed using amine coupling. The instrument has two sensor surfaces and HSA was immobilized on both surfaces. Around 110 Hz of HSA was stably immobilized on the surfaces.
(§7) In the kinetic experiment, HBS-EP+/−2 mM DTT was used as running buffer and the flow rate was 25 μl/min at 22° C. In each cycle, one polypeptide was tested against one concentration of HMGB1. […] The analyte HMGB1(reduced) was diluted in HBS-EP+2 mM DTT within a concentration range of 1.33 to 21.4 μg/ml, and the analyte HMGB1(disulfide) was diluted in HBS-EP buffer within a concentration range of 0.62 to 10 μg/ml. Both analytes were subsequently injected for 84 s over both channel A and B, where channel B was used as a blank surface for curve subtraction. Buffer injections were also made for surface subtractions. After dissociation, the surfaces were regenerated with a 30 s injection of 100 mM HCl followed by a 30 s injection of 20 mM NaOH. Data was collected by Attester Software and subsequently processed in the Evaluation Software. To calculate the kinetic parameters (ka and kd) and affinity constant (KD), the experimental data were fitted using a 1:1 or a 1:2 binding model.

HMGB1(disulfide) [4] = molecular target: T1, HMGB1(disulfide); assay: Attana A200 biosensor binding analysis, HMGB1(disulfide); conditions: relevant kd (the most represented in %); non-reducing; captured on HSA; 1:1 or 1:2 model
Description: as §6, §7

HMGB1(red) [5] = molecular target: T4, HMGB1(red); assay: In vitro cell migration assay, mouse 3T3 fibroblasts in modified Boyden chambers; format: cell-based; conditions: 0.2 nM HMGB1, polypeptide 0.1, 0.3, 1 nM, lowest detection limit 0.1 nM, read-out: IC50 (nM), inhibiting HMGB1 induced cell migration
Description: In vitro cell migration assay: Mouse 3T3 fibroblast cells were used to assess the ability of His6-tagged Z variants to inhibit migration of cells in response to HMGB1 in modified Boyden Chambers (Neuroprobe Inc.). Mouse 3T3 fibroblasts were grown in Dulbecco's Modified Eagle Medium (DMEM, Gibco) with 10% fetal bovine serum (FBS, Gibco), 1% L-glutamine and antibiotics (Lonza). Prior to use, cells were centrifuged and the pellet was resuspended in DMEM (without FBS) without further washing. Polycarbonate filters (Neuroprobe Inc.; #PFA8) with 8 μm pores were coated with human fibronectin (Roche). Serum-free DMEM (negative control), DMEM containing 1 nM HMGB1(red) (positive control), and DMEM containing 1 nM HMGB1(red) plus Z variants ZH 01 (SEQ ID NO:1) and ZH 31 (SEQ ID NO:31) at a concentration of 10 or 100 ng/ml, were placed in the lower wells. A control polypeptide, Z04726 (SEQ ID NO:54), binding an irrelevant target, was used as negative control. boxA(red) (SEQ ID NO:51), a known competitor of HMGB1, was used at 1 nM concentration as positive control for inhibition of HMGB1 induced cell migration. Fibronectin-coated filters were placed so as to separate the lower and the upper wells, and 50000 3T3 cells were placed in the upper wells. […] The cells on the lower side of the filter were counted with a Leica DM LS2 microscope at 400× magnification. […]

T5 sequence (P09429 with tags, fused parts or gaps): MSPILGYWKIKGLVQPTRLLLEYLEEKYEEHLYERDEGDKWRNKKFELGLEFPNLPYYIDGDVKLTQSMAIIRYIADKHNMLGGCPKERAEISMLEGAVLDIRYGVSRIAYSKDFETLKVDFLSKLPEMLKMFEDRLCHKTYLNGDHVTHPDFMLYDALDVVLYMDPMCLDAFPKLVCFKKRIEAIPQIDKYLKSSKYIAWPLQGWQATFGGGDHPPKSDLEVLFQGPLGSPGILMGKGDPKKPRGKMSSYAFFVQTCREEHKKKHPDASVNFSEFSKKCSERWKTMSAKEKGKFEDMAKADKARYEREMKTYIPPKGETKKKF

Molecule | ka1 (HMGB1(disulfide) [1]) | ka2 (HMGB1(disulfide) [1]) | kd1 (HMGB1(disulfide) [1]) | kd2 (HMGB1(disulfide) [1]) | ka1 (boxA(disulfide)) | kd1 (boxA(disulfide)) | ka1 (HMGB1(red) [2]) | kd1 (HMGB1(red) [2]) | ka1 (GST-boxA(red)) | kd1 (GST-boxA(red)) | kd HMGB1 (red) (HMGB1(red) [3]) | kd HMGB1 (disulfide) (HMGB1(disulfide) [4]) | IC50 (HMGB1(red) [5])
B1 | 160000 M⁻¹ s⁻¹ | 13000 M⁻¹ s⁻¹ | 0.018 s⁻¹ | 3.5e-05 s⁻¹ | 150000 M⁻¹ s⁻¹ | 21000 s⁻¹ | 500000 M⁻¹ s⁻¹ | 0.0004 s⁻¹ | 72000 M⁻¹ s⁻¹ | 7.6e-05 s⁻¹ | 0.013 s⁻¹ | 0.00048 s⁻¹ | 
B2 |  |  |  |  |  |  |  |  |  |  | 0.013 s⁻¹ | 0.00062 s⁻¹ | 0.3 to 1 nM
B3 |  |  |  |  |  |  |  |  |  |  | 0.00055 s⁻¹ | 0.001 s⁻¹ | 0.1 to 0.3 nM
